# Measured values reported in PubChem BioAssay AID1476 (National Center for Advancing Translational Sciences (NCATS), 2009).
# Screen size: about 200,000 compounds; about 4,500 (2.2%) were called active. The inconclusive results got no clear call from the source; some entries with a clear call stand among them for comparison. The call rests on the fitted dose curve; in most records, active means well fitted inhibition curve with a large enough effect; inconclusive means small, poorly fitted or top-dose-only effect, or effect the other way; inactive means flat fitted curve, though single readings scatter. A potency beside an inconclusive call is a rough fit, not a confirmed value.
# Target: Cruzipain (Trypanosoma cruzi) (UniProt P25779)
# Assay: qHTS Assay for Promiscuous and Specific Inhibitors of Cruzain (without detergent); further: nearly all actives have a fitted effect of over 40% in size;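 on max response, negative = inhibition: plate controls were enzyme without inhibitor for no effect and buffer without enzyme for full effect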
# Conditions: purified cruzain, Z-FR-AMC fluorescence, no detergent
# How it was run: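 Detergent-free condition (0.00005% Triton X-100) in acetate buffer pH 5.5 with DTT. 1.5 nM enzyme and compound were pre-mixed 15 min, then 2 uM Z-FR-AMC substrate added; reaction progress from fluorescence change between first and third reads (60 s).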
# Potency means the concentration at half of the fitted maximal effect; tags describe the fitted curve by direction and shape.
# UniProt P25779, sequence (P25779 whole entry, looked up): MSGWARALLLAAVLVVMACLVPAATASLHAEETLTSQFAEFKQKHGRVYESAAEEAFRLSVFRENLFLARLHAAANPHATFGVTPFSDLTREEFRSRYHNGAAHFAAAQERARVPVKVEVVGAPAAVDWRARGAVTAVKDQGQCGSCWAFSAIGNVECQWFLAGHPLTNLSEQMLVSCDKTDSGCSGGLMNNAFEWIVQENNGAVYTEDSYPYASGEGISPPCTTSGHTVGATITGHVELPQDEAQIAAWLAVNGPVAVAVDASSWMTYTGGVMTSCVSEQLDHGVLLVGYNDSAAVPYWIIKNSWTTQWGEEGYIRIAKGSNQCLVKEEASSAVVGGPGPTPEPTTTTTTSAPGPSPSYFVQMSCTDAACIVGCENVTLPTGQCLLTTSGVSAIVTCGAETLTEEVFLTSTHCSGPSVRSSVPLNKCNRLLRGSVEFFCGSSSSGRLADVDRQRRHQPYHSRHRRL
Compound,Potency,"max response, negative = inhibition"
Cc1cccc(C)c1OCC(O)CNS(=O)(=O)c1ccccc1C(=O)N1CCCCC1 (stereo not drawn),"inconclusive: 31.6 µM [activator, single point]",
O=C(Cc1cccs1)Nc1nc2c(ccc3ccccc32)s1,"inconclusive: 31.6 µM [inhibitor, single point]",
CC(C)(C)C1CCc2c(sc(NC(=O)C3c4ccccc4Oc4ccccc43)c2C(N)=O)C1 (stereo not drawn),active: 10 µM,
Cc1ccc(C(=O)NC(=S)N2CCN(c3ccc([N+](=O)[O-])cc3)CC2)cc1,,inactive: 14.1%
CCOc1ccc(NC(=O)Cn2c(=O)n(Cc3ccc4c(c3)OCO4)c(=O)c3ccc(C(=O)NC4CCCCC4)cc32)cc1,,inactive: -22.8%
CCOC(=O)c1sc(NC(=S)NC(=O)c2ccco2)nc1C,"inconclusive: 2.51 µM [inhibitor, partial curve]",
N#CC1=C(N)Nc2nc3ccccc3n2C1c1ccc(Cl)cc1 (stereo not drawn),active: 31.6 µM,
Cc1csc(NC(=O)c2cccc(Cn3nc(C)c(Br)c3C)c2)n1,,inactive: 6.49%
CN(C(=O)CC(=O)Nc1ccc2nc3n(c(=O)c2c1)CCCCC3)c1ccccc1F,,inactive: -2.71%
O=C(c1ccc2c(c1)N(Cc1ccc(F)cc1)C(=O)c1ccccc1S2)N1CCC2(CC1)OCCO2,"inconclusive: 31.6 µM [activator, single point]",
CCN(CC)S(=O)(=O)c1ccc2c(c1)nc(CCC(=O)OCC(=O)Nc1cc(OC)cc(OC)c1)n2C,"inconclusive: 31.6 µM [activator, single point]",
CC1=C(C(=O)Nc2ccccc2C)C(c2cccs2)n2nc(SCc3ccccc3)nc2N1 (stereo not drawn),active: 25.1 µM,
CCc1ccc(S(=O)(=O)NCc2ccc3c(c2)CCN3C(=O)c2ccc(C)cc2)cc1,"inconclusive: 31.6 µM [inhibitor, single point]",
COc1ccc(-c2noc(-c3ccc(N4CCOCC4)c([N+](=O)[O-])c3)n2)cc1,"inconclusive: 39.8 µM [inhibitor, single point]",
Cc1cc(Cl)ccc1OCC(=O)Nn1c(C)ccc1C,active: 2.51 µM,
N#Cc1ccccc1CSc1nc2ncc(Br)cc2[nH]1,"inconclusive: 31.6 µM [inhibitor, single point]",
CCn1ncc(CNC(=O)CCSc2nc(-c3ccco3)cc(C(F)(F)F)n2)c1C,"inconclusive: 39.8 µM [activator, single point]",
Cc1[nH]c2ccccc2c1C(=O)COC(=O)c1cccc(S(=O)(=O)N2CCCCC2)c1,"inconclusive: 39.8 µM [inhibitor, single point]",
